Experimental data as given in the supplement of paper PMC8728848.
The list shows a part of the results.

Key:
Assay in all cases: glycan array binding signal (z-score within array); higher = stronger binding
Conditions in all cases: glycan notation: IUPAC condensed, linker removed
[1] = target: Gal(b1-4)GlcNAc(b1-3)Gal(b1-4)GlcNAc(b1-3)Gal(b1-4)GlcNAc(b1-3)Gal(b1-4)GlcNAc(b1-3)Gal(b1-4)GlcNAc(b1-2)Man(a1-3)[Gal(b1-4)GlcNAc(b1-3)Gal(b1-4)GlcNAc(b1-3)Gal(b1-4)GlcNAc(b1-3)Gal(b1-4)GlcNAc(b1-3)Gal(b1-4)GlcNAc(b1-2)Man(a1-6)]Man(b1-4)GlcNAc(b1-4)[Fuc(a1-6)]GlcNAc
Outline: (§1)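 Arrays were curated from the Consortium for Functional Glycomics database, 3228 in total, and kept only where the protein sequence was available. Binding is expressed as a within-array Z-score. This score was averaged across arrays of the same protein sequence at different concentrations or buffers and across linkers, and negative values can be read as non-binding.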

[2] = target: Gal(b1-4)GlcNAc(b1-3)Gal(b1-4)GlcNAc(b1-3)Gal(b1-4)GlcNAc(b1-3)Gal(b1-4)GlcNAc(b1-3)Gal(b1-4)GlcNAc(b1-2)[Gal(b1-4)GlcNAc(b1-3)Gal(b1-4)GlcNAc(b1-3)Gal(b1-4)GlcNAc(b1-3)Gal(b1-4)GlcNAc(b1-3)Gal(b1-4)GlcNAc(b1-6)]Man(a1-6)[Gal(b1-4)GlcNAc(b1-3)Gal(b1-4)GlcNAc(b1-3)Gal(b1-4)GlcNAc(b1-3)Gal(b1-4)GlcNAc(b1-3)Gal(b1-4)GlcNAc(b1-2)Man(a1-3)]Man(b1-4)GlcNAc(b1-4)[Fuc(a1-6)]GlcNAc
Outline: as §1

[3] = target: Gal(b1-4)GlcNAc(b1-3)Gal(b1-4)GlcNAc(b1-3)Gal(b1-4)GlcNAc(b1-3)Gal(b1-4)GlcNAc(b1-3)Gal(b1-4)GlcNAc(b1-3)Gal(b1-4)GlcNAc(b1-2)Man(a1-3)[Gal(b1-4)GlcNAc(b1-3)Gal(b1-4)GlcNAc(b1-3)Gal(b1-4)GlcNAc(b1-3)Gal(b1-4)GlcNAc(b1-3)Gal(b1-4)GlcNAc(b1-3)Gal(b1-4)GlcNAc(b1-2)Man(a1-6)]Man(b1-4)GlcNAc(b1-4)GlcNAc
Outline: as §1

[4] = target: Gal(b1-4)GlcNAc(b1-3)Gal(b1-4)GlcNAc(b1-3)GalNAc
Outline: as §1

[5] = target: Gal(b1-4)GlcNAc(b1-3)Gal(b1-4)GlcNAc(b1-3)[Gal(b1-4)GlcNAc(b1-3)Gal(b1-4)GlcNAc(b1-6)]GalNAc
Outline: as §1

[6] = target: Gal(b1-4)GlcNAc(b1-3)Gal(b1-4)GlcNAc(b1-6)[Gal(b1-3)]GalNAc
Outline: as §1

[7] = target: Gal(b1-4)GlcNAc(b1-3)Gal(b1-4)[Fuc(a1-3)]GlcNAc(b1-3)Gal(b1-4)[Fuc(a1-3)]GlcNAc
Outline: as §1

[8] = target: Gal(b1-4)GlcNAc(b1-3)GalNAc
Outline: as §1

[9] = target: Gal(b1-4)GlcNAc(b1-3)[Fuc(a1-3)GlcNAc(b1-6)]Gal(b1-4)Glc
Outline: as §1

[10] = target: Gal(b1-4)GlcNAc(b1-3)[Gal(b1-4)GlcNAc(b1-6)]Gal(b1-4)GlcNAc
Outline: as §1

[11] = target: Gal(b1-4)GlcNAc(b1-3)[Gal(b1-4)GlcNAc(b1-6)]GalNAc
Outline: as §1

[12] = target: Gal(b1-4)GlcNAc(b1-3)[GlcNAc(b1-6)]Gal(b1-4)GlcNAc
Outline: as §1

[13] = target: Gal(b1-4)GlcNAc(b1-6)Gal(b1-4)GlcNAc
Outline: as §1

[14] = target: Gal(b1-4)GlcNAc(b1-6)Gal(b1-4)GlcNAc(b1-6)GalNAc
Outline: as §1

[15] = target: Gal(b1-4)GlcNAc(b1-6)GalNAc
Outline: as §1

[16] = target: Gal(b1-4)GlcNAc(b1-6)[Gal(b1-3)]GalNAc
Outline: as §1

[17] = target: Gal(b1-4)GlcNAc(b1-6)[Gal(b1-4)GlcNAc(b1-3)]GalNAc
Outline: as §1

[18] = target: Gal(b1-4)GlcNAc6P
Outline: as §1

[19] = target: Gal(b1-6)Gal
Outline: as §1

[20] = target: Gal3S(b1-3)GalNAc
Outline: as §1

[21] = target: Gal3S(b1-3)GlcNAc
Outline: as §1

[22] = target: Gal3S(b1-3)[Fuc(a1-4)]GlcNAc
Outline: as §1

[23] = target: Gal3S(b1-4)Glc
Outline: as §1

[24] = target: Gal3S(b1-4)Glc6S
Outline: as §1

[25] = target: Gal3S(b1-4)GlcNAc
Outline: as §1

[26] = target: Gal3S(b1-4)GlcNAc6S
Outline: as §1

[27] = target: Gal3S(b1-4)[Fuc(a1-3)]Glc6S
Outline: as §1

[28] = target: Gal3S(b1-4)[Fuc(a1-3)]GlcNAc
Outline: as §1

[29] = target: Gal3S(b1-4)[Fuc(a1-3)]GlcNAc6S
Outline: as §1

[30] = target: Gal3S4S(b1-4)GlcNAc
Outline: as §1

[31] = target: Gal3S6S(b1-4)GlcNAc
Outline: as §1

[32] = target: Gal3S6S(b1-4)GlcNAc6S
Outline: as §1

[33] = target: Gal4S(b1-4)GlcNAc
Outline: as §1

[34] = target: Gal4S6S(b1-4)GlcNAc
Outline: as §1

[35] = target: Gal6P(b1-4)GlcNAc
Outline: as §1

[36] = target: Gal6S(b1-3)GlcNAc
Outline: as §1

[37] = target: Gal6S(b1-3)GlcNAc6S
Outline: as §1

[38] = target: Gal6S(b1-4)Glc
Outline: as §1

[39] = target: Gal6S(b1-4)Glc6S
Outline: as §1

[40] = target: Gal6S(b1-4)GlcNAc
Outline: as §1

[41] = target: Gal6S(b1-4)GlcNAc6S
Outline: as §1

[42] = target: GalNAc(a1-3)Gal
Outline: as §1

[43] = target: GalNAc(a1-3)GalNAc
Outline: as §1

[44] = target: GalNAc(a1-3)GalNAc(a1-3)Gal(a1-4)Gal(b1-4)GlcNAc
Outline: as §1

[45] = target: GalNAc(a1-3)GalNAc(b1-3)Gal(a1-4)Gal(b1-4)Glc
Outline: as §1

B1: SJA (Sophora japonica) (protein)
chain: FLGLFNSGGYSSSYQIVAVEFDTYINEWDPKTRHIGIDINSINSTKTVTWGWENGEVAIVLISYKAATETLTVSLTYPSSQTSYILSAAVDLKSILPEWVRIGF
- glycan array binding signal (z-score) [1]: 1.49
- glycan array binding signal (z-score) [2]: 2.24
- glycan array binding signal (z-score) [3]: 0.358
- glycan array binding signal (z-score) [4]: 0.349
- glycan array binding signal (z-score) [5]: 1.24
- glycan array binding signal (z-score) [6]: 0.875
- glycan array binding signal (z-score) [7]: -0.071
- glycan array binding signal (z-score) [8]: -0.09
- glycan array binding signal (z-score) [9]: 0.035
- glycan array binding signal (z-score) [10]: 0.112
- glycan array binding signal (z-score) [11]: 0.035
- glycan array binding signal (z-score) [12]: -0.02
- glycan array binding signal (z-score) [13]: -0.357
- glycan array binding signal (z-score) [14]: -0.055
- glycan array binding signal (z-score) [15]: -0.118
- glycan array binding signal (z-score) [16]: -0.108
- glycan array binding signal (z-score) [17]: -0.159
- glycan array binding signal (z-score) [18]: -0.274
- glycan array binding signal (z-score) [19]: -0.22
- glycan array binding signal (z-score) [20]: -0.16
- glycan array binding signal (z-score) [21]: -0.263
- glycan array binding signal (z-score) [22]: -0.235
- glycan array binding signal (z-score) [23]: -0.193
- glycan array binding signal (z-score) [24]: -0.048
- glycan array binding signal (z-score) [25]: -0.189
- glycan array binding signal (z-score) [26]: -0.161
- glycan array binding signal (z-score) [27]: 0.247
- glycan array binding signal (z-score) [28]: -0.24
- glycan array binding signal (z-score) [29]: -0.166
- glycan array binding signal (z-score) [30]: -0.23
- glycan array binding signal (z-score) [31]: -0.222
- glycan array binding signal (z-score) [32]: -0.235
- glycan array binding signal (z-score) [33]: -0.218
- glycan array binding signal (z-score) [34]: -0.277
- glycan array binding signal (z-score) [35]: -0.461
- glycan array binding signal (z-score) [36]: -0.367
- glycan array binding signal (z-score) [37]: -0.256
- glycan array binding signal (z-score) [38]: 0.051
- glycan array binding signal (z-score) [39]: -0.345
- glycan array binding signal (z-score) [40]: -0.134
- glycan array binding signal (z-score) [41]: -0.243
- glycan array binding signal (z-score) [42]: -0.062
- glycan array binding signal (z-score) [43]: -0.201
- glycan array binding signal (z-score) [44]: -0.244
- glycan array binding signal (z-score) [45]: -0.355
